{"source": "paper PMC4336329", "about": "(PLoS ONE, 2015)", "note": "Among all 310,000 compounds or so, about 14,000 (4.5%) showed an effect of 50% or more. Effects have a minus sign here. The list shows a part of the results.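 Also: peak tail current of the secondary pulse compared with the same well before compound.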", "data": [{"biological_target": "human ether-à-go-go-related gene (hERG) potassium channel (human, UniProt Q12809)", "sequence (Q12809 whole entry, looked up)": "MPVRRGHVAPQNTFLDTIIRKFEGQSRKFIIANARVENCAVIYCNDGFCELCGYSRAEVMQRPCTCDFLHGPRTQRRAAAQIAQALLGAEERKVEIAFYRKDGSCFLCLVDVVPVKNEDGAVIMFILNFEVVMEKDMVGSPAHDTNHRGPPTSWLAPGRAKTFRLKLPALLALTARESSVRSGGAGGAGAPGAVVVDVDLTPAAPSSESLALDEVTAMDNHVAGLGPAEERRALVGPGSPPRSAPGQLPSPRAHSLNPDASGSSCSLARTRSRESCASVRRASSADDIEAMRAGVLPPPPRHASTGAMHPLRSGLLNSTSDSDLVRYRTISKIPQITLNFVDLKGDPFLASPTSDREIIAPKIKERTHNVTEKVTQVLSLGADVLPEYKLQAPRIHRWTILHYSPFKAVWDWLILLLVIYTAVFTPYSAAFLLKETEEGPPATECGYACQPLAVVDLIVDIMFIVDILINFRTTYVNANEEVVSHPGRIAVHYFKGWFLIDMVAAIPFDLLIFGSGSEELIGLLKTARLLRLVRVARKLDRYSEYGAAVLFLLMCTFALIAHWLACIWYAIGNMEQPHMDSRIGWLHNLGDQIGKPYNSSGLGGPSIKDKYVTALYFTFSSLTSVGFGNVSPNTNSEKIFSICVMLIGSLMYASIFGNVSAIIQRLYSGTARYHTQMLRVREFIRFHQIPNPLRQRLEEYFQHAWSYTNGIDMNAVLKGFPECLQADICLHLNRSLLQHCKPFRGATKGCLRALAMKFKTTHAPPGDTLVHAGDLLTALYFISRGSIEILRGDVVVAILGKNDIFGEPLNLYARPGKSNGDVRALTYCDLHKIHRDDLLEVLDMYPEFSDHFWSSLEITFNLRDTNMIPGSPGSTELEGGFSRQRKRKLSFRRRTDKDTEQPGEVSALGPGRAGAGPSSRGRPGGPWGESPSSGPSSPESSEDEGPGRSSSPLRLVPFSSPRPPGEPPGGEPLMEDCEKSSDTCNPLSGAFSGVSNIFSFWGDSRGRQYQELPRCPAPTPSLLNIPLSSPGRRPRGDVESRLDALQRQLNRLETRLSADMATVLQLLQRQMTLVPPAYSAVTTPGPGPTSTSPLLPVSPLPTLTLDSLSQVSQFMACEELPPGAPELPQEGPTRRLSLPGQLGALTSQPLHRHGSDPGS", "assay": "primary screen, population patch clamp on CHO cells stably expressing hERG", "units": {"hERG current change (%, negative = inhibition) at 10uM": "%"}, "values": [{"smiles": "Cc1nc(-c2ccc(F)cc2)c(CC(=O)Nc2cccc(S(=O)(=O)N3CCOCC3)c2)s1", "hERG current change (%, negative = inhibition) at 10uM": -15.8}, {"smiles": "Cc1c(CCOC(=O)CC23CC4CC(CC(C4)C2)C3)sc[n+]1CC(=O)c1ccc(Br)cc1.[Br-]", "hERG current change (%, negative = inhibition) at 10uM": -75.1}, {"smiles": "COc1ccccc1Cc1nc(-c2cccnc2)no1", "hERG current change (%, negative = inhibition) at 10uM": 14.8}, {"smiles": "COc1ccc(CCNC(=O)COC(=O)c2sc(C)nc2C)cc1", "hERG current change (%, negative = inhibition) at 10uM": -10.8}, {"smiles": "CSc1ccccc1OCc1cc(C(=O)N(C)Cc2nonc2C)no1", "hERG current change (%, negative = inhibition) at 10uM": -2.7}, {"smiles": "CCCN1CCC(NC(=O)Cc2cccc(C)c2)CC1", "hERG current change (%, negative = inhibition) at 10uM": -3.07}, {"smiles": "O=S(=O)(Nc1nc2ccccc2nc1Cl)c1ccc(Br)cc1", "hERG current change (%, negative = inhibition) at 10uM": 27.9}, {"smiles": "CC(=O)Nc1ccc(S(=O)(=O)NCCSc2ccccn2)cc1", "hERG current change (%, negative = inhibition) at 10uM": 1.63}, {"smiles": "CCOC(=O)c1ccc(Nc2ccc([N+](=O)[O-])cn2)cc1", "hERG current change (%, negative = inhibition) at 10uM": 10.4}, {"smiles": "CC(=O)Nc1ccc(S(=O)(=O)N(C)CC(=O)OCC(=O)Nc2ccc3c(c2)OCO3)cc1", "hERG current change (%, negative = inhibition) at 10uM": 9.31}, {"smiles": "CCOCCCNC(=O)C1CCN(Cc2cccc(OCc3ccccc3)c2)CC1.O=C(O)C(=O)O", "hERG current change (%, negative = inhibition) at 10uM": -14.1}, {"smiles": "O=C1CC(c2ccc(Cl)cc2)n2nc(N3C(=O)CCC3=O)nc2N1", "note": "(stereo not drawn)", "hERG current change (%, negative = inhibition) at 10uM": 17.2}, {"smiles": "CCOc1nc(-c2ccc(OC)cc2)ccc1-c1noc(-c2cc(OC)c(OC)c(OC)c2)n1", "hERG current change (%, negative = inhibition) at 10uM": -3.98}, {"smiles": "O=C(Cc1ccc(N2CCNC2=O)cc1)N1CCCC(Nc2ccc(F)c(F)c2)C1", "note": "(stereo not drawn)", "hERG current change (%, negative = inhibition) at 10uM": -13.1}, {"smiles": "CC(/C=C/c1ccccc1)=N\\Nc1ccccc1[N+](=O)[O-]", "hERG current change (%, negative = inhibition) at 10uM": 14.2}, {"smiles": "C=CCNC(=O)c1ccc(N(Cc2ccc(Cl)cc2)S(C)(=O)=O)cc1", "hERG current change (%, negative = inhibition) at 10uM": -33.5}, {"smiles": "O=C(Nc1nc(-c2ccccc2)cs1)NC1CCCCC1", "hERG current change (%, negative = inhibition) at 10uM": 9.58}, {"smiles": "CC(NC(=O)c1ccccc1)c1nc2ccccc2n1Cc1ccccc1F", "note": "(stereo not drawn)", "hERG current change (%, negative = inhibition) at 10uM": 0.996}, {"smiles": "CCOC(=O)C1=C(O)CSC1=Nc1ccc(Cl)cc1", "hERG current change (%, negative = inhibition) at 10uM": 13.5}, {"smiles": "O=C(/C=C/Sc1ncn[nH]1)c1ccc(Cl)cc1", "hERG current change (%, negative = inhibition) at 10uM": 2.27}, {"smiles": "CC(C)(C)OC(=O)N1Cc2[nH]c3ccccc3c2C[C@@H]1C(=O)O", "hERG current change (%, negative = inhibition) at 10uM": 13}, {"smiles": "COc1ccc(C(=O)NC(=S)NNC(=O)c2cnccn2)cc1", "hERG current change (%, negative = inhibition) at 10uM": 7.89}, {"smiles": "O=C(Nc1ccccc1C(=O)Nc1ccc(Br)cn1)c1ccccc1Cl", "hERG current change (%, negative = inhibition) at 10uM": -9.43}, {"smiles": "Cc1nc2ccc(N)cc2c(=O)n1Cc1ccc(Cl)cc1", "hERG current change (%, negative = inhibition) at 10uM": -11.4}, {"smiles": "Fc1ccc(OCc2nc(-c3ccc(Br)o3)no2)c(F)c1", "hERG current change (%, negative = inhibition) at 10uM": 2.46}, {"smiles": "Cc1nn2c(COc3ccc(NC(=O)C(C)C)cc3)nnc2c2ccccc12", "hERG current change (%, negative = inhibition) at 10uM": -5.01}, {"smiles": "CC(NC(=O)COC(=O)C1=COCCO1)C12CC3CC(CC(C3)C1)C2", "note": "(stereo not drawn)", "hERG current change (%, negative = inhibition) at 10uM": 13.7}, {"smiles": "COc1ccccc1C(=O)NNC(=O)CN1C(=O)c2ccccc2C1=O", "hERG current change (%, negative = inhibition) at 10uM": 14.3}, {"smiles": "CN(c1cccc(NS(=O)(=O)c2cccc([N+](=O)[O-])c2)c1)S(C)(=O)=O", "hERG current change (%, negative = inhibition) at 10uM": 4.42}, {"smiles": "CCOc1ccc(CNCc2ccccc2Cl)cc1.Cl", "hERG current change (%, negative = inhibition) at 10uM": -55.3}, {"smiles": "O=C(COc1cccc(Br)c1)NN=C1c2ccccc2-c2ccccc21", "hERG current change (%, negative = inhibition) at 10uM": -6.17}, {"smiles": "CCCNC(=O)NC(=O)CSc1nnc(-c2c[nH]c3ccccc23)o1", "hERG current change (%, negative = inhibition) at 10uM": 8.3}, {"smiles": "Cc1cc(N2CCN(Cc3cn(C)nc3-c3cccc(Cl)c3)CC2)cc(C)n1", "hERG current change (%, negative = inhibition) at 10uM": -65}, {"smiles": "CN1CCN(CC(=O)Nc2ccc(S(=O)(=O)N(C)C)cc2)CC1.O=C(O)C(=O)O", "hERG current change (%, negative = inhibition) at 10uM": 6.74}, {"smiles": "Cn1cc(C(=O)NC2CCCCC2)c(=O)c2cc(S(=O)(=O)N3CCCC3)ccc21", "hERG current change (%, negative = inhibition) at 10uM": -12.1}, {"smiles": "O=C(COc1ccc(Cl)cc1)NCC(=O)N1CCC2(CC1)NCCc1[nH]cnc12", "hERG current change (%, negative = inhibition) at 10uM": 7.16}, {"smiles": "Cc1ccc(C(=O)Nc2cccc([N+](=O)[O-])c2)cc1S(=O)(=O)Nc1ccc(C(=O)O)cc1", "hERG current change (%, negative = inhibition) at 10uM": 11.7}, {"smiles": "Nc1ccc(Sc2cnn(-c3ccccc3)c(=O)c2Cl)cc1", "hERG current change (%, negative = inhibition) at 10uM": -35.9}, {"smiles": "COc1ccc(C(=O)N2CC3(CC(c4ccc(Cl)cc4)=NO3)C[C@H]2C(=O)NCC(N)=O)cc1", "note": "(stereo partly drawn)", "hERG current change (%, negative = inhibition) at 10uM": 9.04}, {"smiles": "O=C(CC12CC3CC(CC(C3)C1)C2)Nc1cccc2ncccc12", "hERG current change (%, negative = inhibition) at 10uM": -23}, {"smiles": "O=c1oc2ccccc2c(N2CCCC2)c1CN1CCCC1", "hERG current change (%, negative = inhibition) at 10uM": 13}, {"smiles": "Cc1c(C(=O)OC2CCCCC2)[nH]c2c1C(=O)CC(C)(C)C2", "hERG current change (%, negative = inhibition) at 10uM": -2.98}, {"smiles": "COC(=O)Cn1cccc1C(=O)c1ccccc1", "hERG current change (%, negative = inhibition) at 10uM": -4.73}, {"smiles": "Cc1ccc(OCC(=O)NS(=O)(=O)c2ccccc2)cc1", "hERG current change (%, negative = inhibition) at 10uM": 18.6}, {"smiles": "Cc1cccc(CS(=O)(=O)Cc2ccc(C(=O)NCCCN3CCCC3)o2)c1", "hERG current change (%, negative = inhibition) at 10uM": -10.8}]}]}
